Reference: the supplement of paper PMC3334620
Over roughly 33,000 sequences, “E-score (-0.5 to 0.5)” has its median near -0.01; the highest 2% begin near 0.26. The list shows a part of the results.

molecular target: Ste12 (UniProt P13574); experiment: PBM E-score (8-mer binding enrichment) (E-score (-0.5 to 0.5)); higher = stronger / more preferred TF binding; most listed sequences are background and not binding sites; conditions: protein concentration: 200 nM; construct: GST-DNA-binding domain
In short: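 GST-tagged yeast TFs (full-length or DNA-binding domain) were made by PURExpress in vitro transcription/translation and applied at about 100-200 nM to universal all-10-mer Agilent arrays. The arrays were made double-stranded by primer extension, on fresh or once-stripped slides. Bound protein was detected with fluorescent anti-GST, and scans were normalised with masliner. Each ungapped eight-base word, pooled with its reverse complement, received an E-score (modified Wilcoxon-Mann-Whitney statistic) from the Universal PBM Analysis Suite.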

| Sequence | PBM E-score |
| --- | --- |
| AGACACAT | -0.0224 |
| AAAAGAAC | 0.126 |
| CTCGATAA | 0.0982 |
| AAAATAAT | 0.293 |
| CGGTATGC | -0.222 |
| AGACACAG | -0.124 |
| CACCACGA | -0.0713 |
| ACGGCATG | -0.107 |
| CAGTATGA | 0.0511 |
| CTGGTTGA | -0.179 |
| GGAAGCTA | -0.0367 |
| AGTAGCGA | -0.169 |
| AGTCCGGA | -0.0502 |
| CCAATAAA | 0.148 |
| GACCTGTA | -0.01 |
| CTTTAAGA | 0.158 |
| GAGCGACA | 0.0587 |
| GCTGAGCA | -0.15 |
| GAAAGTGC | -0.209 |
| GTTAACCA | 0.0343 |
| CACAGTAA | 0.155 |
| GCCCGCCC | 0.257 |
| ACTCACAT | -0.0517 |
| ATTATTCC | 0.172 |
| GTGCAAGA | -0.145 |

| Sequence | PBM E-score |
| --- | --- |
| ATGTGACG | -0.0421 |
| ACCGTTCA | -0.0688 |
| ACGCAGAC | -0.124 |
| ATGGGTGG | -0.0567 |
| GAATACCC | -0.00671 |
| CGCCAGAC | -0.0884 |
| ACAAGTAA | 0.073 |
| CAGACTCC | -0.121 |
| CTTTATAC | 0.0886 |
| CATCCGCC | -0.00736 |
| AGGCTGGA | -0.218 |
| ACACGATC | 0.0346 |
| ACTAATCT | -0.0562 |
| ATGACCTA | -0.0243 |
| CGCGCCCC | 0.0693 |
| CCGTCATC | -0.166 |
| ATGATTCA | 0.112 |
| AGATTAGA | 0.00999 |
| GAGCTGCA | -0.167 |
| AAGTTCGT | -0.226 |
| CTGGTCTA | -0.0201 |
| GCCGACTA | 0.0127 |
| AGTAGAAT | 0.171 |
| ACCGCTTG | 0.0177 |
| CAACGGGA | 0.0118 |

| Sequence | PBM E-score |
| --- | --- |
| CGACATCC | -0.064 |
| AAGGCAAA | 0.186 |
| ACGTTCTA | 0.0462 |
| AGATTTCC | -0.00453 |
| AACAGGAG | 0.0417 |
| CGCGTGAC | -0.00653 |
| GTGGTACA | -0.165 |
| TCGCGAAA | 0.205 |
| CCGCATCG | -0.0263 |
| TACGAGAA | 0.0731 |
| TGAAATAA | 0.23 |
| CTAAAATC | 0.104 |
| GCTTTTAA | -0.0048 |
| AGACGAGC | -0.255 |
| GCCTCCAA | -0.0652 |
| CCATGACG | -0.11 |
| GCCGGAGA | 0.0583 |
| CTGCGCTA | -0.0645 |
| AGGCACAC | -0.187 |
| GATAAGCA | 0.0471 |
| ACGCAGCA | -0.157 |
| CATCTGAG | -0.0898 |
| AGGGGTGC | -0.124 |
| AGCTTCGG | 0.0665 |
| ATGATTGC | 0.146 |

| Sequence | PBM E-score |
| --- | --- |
| CACTATCG | -0.0737 |
| TGATGGCA | -0.0712 |
| CGATACTA | 0.197 |
| CCTCGAGG | 0.0346 |
| CTTCCGGC | 0.00793 |
| CTCCGCAA | -0.0934 |
| AGAAGATA | 0.0537 |
| CGTTTATA | 0.139 |
| CCATTAAA | 0.0806 |
| CACTGGCC | -0.179 |
| ACTCTCGG | -0.0433 |
| TCCGAAAA | 0.145 |
| ACCCTGAG | -0.0628 |
| GACGCACA | -0.0101 |
| ATAACTAG | 0.146 |
| CTATGATC | -0.152 |
| ACACCTCA | 0.0497 |
| ACCGGCTC | -0.175 |
| CCAGGTTA | -0.00715 |
| GTTCAAAA | 0.107 |
| GAATCGGC | 0.0405 |
| CAAAGACC | 0.0599 |
| CACCCATA | 0.105 |
| GATGGACA | 0.0404 |
| GTGAGAGA | -0.0522 |

| Sequence | PBM E-score |
| --- | --- |
| ACGTGACC | -0.126 |
| GATATACC | -0.118 |
| AAACTTCC | -0.0123 |
| GATGTGAA | 0.236 |
| AACGCGTT | 0.17 |
| GTTCCCCA | -0.0568 |
| TAGGAACA | -0.0772 |
| CGTTTGAG | 0.111 |
| CCACACGA | -0.236 |
| AAACGAAA | 0.248 |
| AAGCTCAG | -0.179 |
| TAAGCTCA | -0.18 |
| CATAACGC | 0.0909 |
| CATAGCGC | 0.0106 |
| GAACTTCC | -0.12 |
| AGATATCA | 0.192 |
| TGGTATAA | 0.0918 |
| AATCGCGC | 0.0772 |
| AAAATTCG | 0.215 |
| ACCCTTAT | -0.0679 |
| CCCCCGGA | -0.0868 |
| CGCGGTGA | 0.14 |
| GAAGCAAC | -0.0343 |
| GCGAAATA | 0.0494 |
| AACGCGTC | 0.0997 |

| Sequence | PBM E-score |
| --- | --- |
| AAAACATC | 0.301 |
| CAACAGAG | 0.0388 |
| CCATACCC | 0.128 |
| CGGAGACA | -0.0644 |
| CTGTGGGC | -0.0734 |
| GGCACCGA | -0.16 |
| AGGAGGGC | -0.081 |
| CTGGGAGC | -0.309 |
| CCATTCCA | -0.0508 |
| CGAATCAG | -0.0178 |
| ACACTCGT | -0.165 |
| CTCATCTA | -0.0777 |
| TACCGGGA | 0.109 |
| AGTACAGA | 0.0239 |
| AACATTAA | 0.301 |
| CGCGATTC | 0.103 |
| AGATCACC | -0.151 |
| ACCGCATC | 0.0773 |
| CCACTGAG | -0.197 |
| GATCCAAA | 0.169 |
| TACTACTA | 0.127 |
| AGCACTGG | -0.0847 |
| AGTCCGAG | -0.141 |
| ACAACCAT | 0.173 |
| AGCTCACC | 0.0193 |

| Sequence | PBM E-score |
| --- | --- |
| GATTTACC | 0.15 |
| CTAGCTAC | -0.254 |
| ATGGCAAT | -0.0437 |
| GACCGGGA | -0.0286 |
| GTAATTGA | 0.0832 |
| AACAAGCT | 0.0833 |
| GTTTGGGA | 0.189 |
| CCACCCGC | 0.0265 |
| ACACCACT | 0.008 |
| AATGTCCA | -0.0659 |
| CAAATTCA | 0.0763 |
| GATAGTGC | -0.109 |
| ACTAATGG | 0.147 |
| CGGCGCCA | -0.00942 |
| ACGCCCCG | 0.103 |
| CCTGACAC | 0.161 |
| CAGAGCCG | -0.0185 |
| GATTCAAA | 0.26 |
| CATCCCAC | -0.0354 |
| AGTGTGTA | 0.055 |
| GAGTTATC | -0.0269 |
| CACCTTTA | -0.0515 |
